From PubChem BioAssay AID485364 (National Center for Advancing Translational Sciences (NCATS), 2010)
Screen size: about 360,000 compounds; about 11,000 (3.1%) were called active. Inconclusive results, whose numbers are uncertain, are shown with a selection of clear calls. Calls follow the shape of the dose curve; as a rule, active = well fitted inhibition curve with a large enough effect; inconclusive = small, poorly fitted or top-dose-only effect; inactive = no such curve, though single readings can be large or run the other way. Potencies of inconclusive entries are left out as doubtful fits.

Biological target: Schistosoma mansoni thioredoxin glutathione reductase (TGR) (UniProt Q962Y6)
Experiment: qHTS Assay for the Inhibitors of Schistosoma Mansoni Peroxiredoxins; also: nearly all actives have a fitted effect of over 60% in size
Conditions: purified TGR, DTNB reduction, TNB absorbance 405 nm; series mostly up to 114 µM
Procedure, shortened: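 Kinetic colorimetric format: TGR-catalysed, NADPH-driven DTNB reduction monitored via TNB absorbance. Enzyme dispensed at 20 nM; compound exposure 15 min at room temperature before reaction start.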
Potency is read from the fitted curve at half-maximal effect; tags tell the direction and shape of the fitted curve.

SMILES	Potency
O=C1c2cccnc2C(=O)N1Cc1ccc(S(=O)(=O)N2CCOc3ccccc32)cc1	inconclusive [inhibitor, full curve, poor fit]
O=C(CC(Nc1ccc(Cl)cc1Cl)C(=O)O)c1ccccc1 (configuration not stated)	active: 3.16 µM
CS(=O)(=O)N1N=C(c2ccco2)CC1c1ccc(Cl)cc1Cl (configuration not stated)	active: 28.2 µM
COc1ccc(-n2c(C)cc(=O)[nH]c2=O)cc1	inactive
Cc1ccc(NC(=O)CSCC(=O)N(C)CC(=O)Nc2cccc(F)c2)cc1	inactive
CCCCCC(O)(CCN1CCCCC1)c1ccccc1 (configuration not stated)	active: 31.6 µM
O=C(Nc1ccc(Br)cc1)c1ccc(F)c(S(=O)(=O)N2CCCc3ccccc32)c1	inactive
CC1CCCC(NC(=O)COC(=O)COc2ccc(Cl)cc2)C1C (configuration not stated)	inconclusive [inhibitor, partial curve]
O=C(CCl)N(c1ccccc1)c1ccccc1	active: 1.26 µM
N#Cc1ncc(C(F)(F)F)cc1Sc1ccccc1N	inactive
Cc1sc(NC(=O)c2ccco2)c(C(c2cccnc2)N2CCC(C)CC2)c1C (configuration not stated)	active: 17.8 µM
CN(C(=O)CC1C(=O)NCCN1Cc1ccc2ccccc2c1)C1CCOCC1 (configuration not stated)	inconclusive [inhibitor, partial curve]
Cc1ccc(-c2c3c(=O)n(C)c(=O)n(C)c3cn2Cc2cccnc2)cc1	inconclusive [inhibitor, partial curve]
Fc1ccc(NCc2ccccc2F)cc1Cl	inactive
COc1cccc(-c2cc(C(=O)N3CCCCC3C)no2)c1 (configuration not stated)	inactive
CS(=O)(=O)N1N=C(c2ccco2)CC1c1ccc(Br)cc1 (configuration not stated)	inconclusive [inhibitor, partial curve]
O=C1CC(c2ccc(F)cc2)Cc2nc(NCc3ccco3)ncc21 (configuration not stated)	inconclusive [inhibitor, full curve]
COc1cccc2cc(C(=O)C3=C(O)C(=O)N(c4cc(C)on4)C3c3cccs3)oc12 (configuration not stated)	active: 28.2 µM
CC(/C=N/n1c(-c2ccncc2)n[nH]c1=S)=C\c1ccco1	active: 31.6 µM
O=S(=O)(Nc1ncccn1)c1ccc(NC(=S)Nc2cccc(Cl)c2)cc1	inconclusive [inhibitor, partial curve]
CON(C)S(=O)(=O)c1ccc2c(c1)NC(=O)C1CCCN21 (configuration not stated)	active: 12.6 µM
Cc1ccc(C2=NOC(=O)/C2=C\c2ccc(C)o2)cc1	inconclusive [inhibitor, full curve, poor fit]
CC(=O)Nc1ccc(Nc2nc(Cl)nc(Nc3ccc(NC(C)=O)cc3)n2)cc1	active: 35.5 µM
COc1cccc(CN2CCN(Cc3nc(-c4cccc(F)c4F)oc3C)CC2=O)c1	inconclusive [inhibitor, single point]

SMILES	Potency
Cc1ccc(C(=O)c2ccc([N+](=O)[O-])cc2)cc1	inactive
CC1CN(C(=O)CN2C(=O)c3ccccc3C2=O)CC(C)O1 (configuration not stated)	inconclusive [inhibitor, single point]
O=C(CSc1nc2ccc(Cl)cc2[nH]1)NC1CCCc2ccccc21 (configuration not stated)	inactive
c1coc(CNc2nc(-c3cccs3)cs2)c1	inconclusive [inhibitor, partial curve]
C=CCN(CC=C)S(=O)(=O)c1ccc(F)cc1	inconclusive [inhibitor, full curve, poor fit]
CCCS(=O)(=O)c1nc(S(=O)(=O)c2ccc(C)cc2)c(N2CCN(CCO)CC2)s1	inconclusive [inhibitor, single point]
O=C(O)CCc1ccc(-c2ccc(Cl)cc2)n1CC(=O)Nc1ccccc1	inconclusive [inhibitor, partial curve]
Cc1cc(C)c(NC(=O)CSc2nccn2C)c(C)c1	inactive
O=C(NCCCN1CCOCC1)c1ccc(CNS(=O)(=O)c2ccc(Br)cc2)cc1	inconclusive [inhibitor, partial curve]
CC(C)CN1CCNC(=O)C1CC(=O)NCc1cnn(-c2cccc(F)c2)c1 (configuration not stated)	inconclusive [inhibitor, partial curve]
O=C(CNS(=O)(=O)c1ccccc1)N1CCCC1	inconclusive [inhibitor, single point]
Nc1ncnc(Sc2ncccn2)c1[N+](=O)[O-]	active: 2.51 µM
COc1ccccc1CN1CCNC(=O)C1CC(=O)NCCCN1CCCC1=O (configuration not stated)	inconclusive [inhibitor, partial curve]
CCNC(=S)NS(=O)(=O)c1ccc(CC)cc1	inconclusive [inhibitor, partial curve, poor fit]
Cc1ccc(S(=O)(=O)N2CCC(C(=O)NCCCn3ccnc3)CC2)cc1	inconclusive [inhibitor, partial curve]
CC1CCN(c2ccc(NC(=S)NC(=O)c3ccc(-c4cccc([N+](=O)[O-])c4)o3)cc2)CC1	inconclusive [inhibitor, single point]
O=C(/C=C/c1cccc(Cl)c1)Nc1ccncc1	inactive
CSC(=NS(=O)(=O)c1ccccc1)SC	inconclusive [inhibitor, partial curve, poor fit]
CCN(c1ccccc1)S(=O)(=O)c1ccc(NC(=S)NC(=O)c2cccs2)cc1	inconclusive [inhibitor, partial curve, poor fit]
CCc1ccc(-c2nc(CS(=O)CC(=O)NCc3cccnc3)c(C)o2)cc1 (configuration not stated)	active: 39.8 µM
COc1cccc(CN2CCNC(=O)C2CC(=O)N(C)Cc2nc(C)cs2)c1OC (configuration not stated)	inconclusive [inhibitor, full curve, poor fit]
CC(C)c1ccc(NC2CCCN(C(=O)c3ccc4nccnc4c3)C2)cc1 (configuration not stated)	inconclusive [inhibitor, partial curve]
CCS(=O)(=O)c1ncc(Cl)c(C(=O)Nc2ccc(S(=O)(=O)N3CCC(C)CC3)cc2)n1	active: 0.447 µM
O=C(/C=C/Nc1ccc(S(=O)(=O)Nc2cnc3ccccc3n2)cc1)c1cccnc1	inconclusive [inhibitor, partial curve]

SMILES	Potency
CCOc1cc2[nH]c(=O)n(CCCCC(=O)N3CCN(c4ccc(OC)cc4)CC3)c(=O)c2cc1OCC	inconclusive [inhibitor, single point]
Cc1ccc(-c2nc3ncccn3c2Nc2ccc3c(c2)OCCO3)o1	active: 50.1 µM
Cc1cc(-c2nnc(CCC(=O)N(C)CCc3ccccc3)o2)no1	inactive
O=C(CNc1n[nH]c(=O)[nH]c1=O)N/N=C/C=C/c1ccccc1	inconclusive [inhibitor, partial curve]
O=C(NNc1ncc(C(F)(F)F)cc1Cl)c1c(Cl)cccc1Cl	inconclusive [inhibitor, full curve, poor fit]
CCC1(C)CC(c2nc(-c3ccc(OC)cc3)cs2)CCS1 (configuration not stated)	inconclusive [inhibitor, partial curve]
Cc1cc(F)ccc1N1CCC(N2CCN(C(C)C)C(CCO)C2)CC1 (configuration not stated)	active: 39.8 µM
C=CCNC(=S)Nc1ccc(N(C)C)cc1	inconclusive [inhibitor, partial curve, poor fit]
Cc1ccc(S(=O)(=O)c2nc(N3CCOCC3)sc2Cl)cc1	inconclusive [inhibitor, full curve]
CC(=O)c1ccc(NC(=O)CN2CCOCC2)cc1	inactive
CN1CCc2nc(SCC(=O)Nc3ccc(F)cc3)c(C#N)cc2C1	active: 28.2 µM
COc1cc(-n2c(N)c(C(=O)NCc3ccco3)c3nc4ccccc4nc32)cc(OC)c1OC	active: 25.1 µM
CC1(C)CC(Nc2ccc(Nc3ccccc3)cc2)CC(C)(C)N1	active: 6.31 µM
COc1ccc(-c2nc(CS(=O)(=O)CC(=O)NCc3ccccc3OC)c(C)o2)cc1	inconclusive [inhibitor, partial curve]
O=C(Nc1cc(C(F)(F)F)ccc1-n1cncn1)c1ccc([N+](=O)[O-])o1	inconclusive [inhibitor, partial curve]
Cc1ccc2nc(Br)c3c(c2c1)OC(CBr)C3 (configuration not stated)	inactive
CCOc1ccccc1CN1CCNC(=O)C1CC(=O)NCCCn1cccn1 (configuration not stated)	inconclusive [inhibitor, partial curve, poor fit]
CCc1ccc2[nH]c(=O)c(CN(Cc3ccccc3)Cc3nnnn3Cc3ccco3)cc2c1	inconclusive [inhibitor, single point]
Cc1ccc(S(=O)(=O)Nc2cc(C)cn(Cc3ccccc3)c2=O)cc1	inconclusive [inhibitor, partial curve]
COC(=O)c1sc2ncccc2c1-n1c(C)ccc1C	inconclusive [inhibitor, partial curve]
Fc1ccc(CNCc2ccco2)cc1	inconclusive [inhibitor, partial curve]
COc1ccc(OC)c(NC(=O)CSc2ncnc3c2cnn3-c2ccccc2Cl)c1	inconclusive [inhibitor, single point]
COc1ccc(-n2c(SCC(N)=O)nnc2-c2cccnc2)cc1	inconclusive [inhibitor, single point]
Cc1oc2c(cc(NS(=O)(=O)c3ccc(C(C)C)cc3)c3ccccc32)c1C(=O)O	inconclusive [inhibitor, partial curve, poor fit]
